The values below come from the RNAGym collection of RNA variant scans (doi:10.7554/elife.90254).

The labels stand for the following.
B1: LINE1-mini (parent)
chain: GGCAGAGCUCAACACAGCGUGGCAAAGUGGCUGUGGCUAGACUGCC

Read counts are not given, so values of variants with three or more changes are uncertain.

The variants in this series derive from B1. In words: self-cleavage, relative activity (ratio to wild type); higher = more cleavage; in vitro, sequencing; the parent is a self-cleaving ribozyme.
On to G7U C13G A16U C37G A41U, for which the self-cleavage was found to be 0.04.

In the case of C8A A26G A39U, the self-cleavage stood at 0.06.

Turning to C8A A26G A39G, the self-cleavage is 0.03.

As for G7U A11G A24C U38C, the self-cleavage is 0.

For the variant G7C G30U U38A G40A C42A, the self-cleavage was found to be 0.02.

For G7U A14G G19A, the self-cleavage was 0.07.

In the case of G7U G17U U20G C23A G30A C37G, the self-cleavage stood at 0.

Regarding G7U C13G A41U, the self-cleavage is 0.13.

As to G7U A14C C15U A16G G17C C18G G19U, the self-cleavage was 0.1.

Turning to G7U U9C C13A G36U G44C C45U, the self-cleavage amounted to 0.

In the case of C8A A14U A16U G21U U32G, the self-cleavage is 0.02.

In the case of G7C G17U U20A A41C U43A, the self-cleavage was found to be 0.07.

Consider C8A A11G G29U U34G, for which the self-cleavage was 0.04.

G7C U20G G21A C37A G40U: the self-cleavage turned out to be 0.11.

Regarding G7U C15A A39C A41U, the self-cleavage turned out to be 0.09.

For the variant G7C U9A C10G A14G G19C C46U, the self-cleavage came out at 0.01.

Regarding G7U A14C C18A U20A, the self-cleavage is 0.1.

For the variant C8A C10G G29A, the self-cleavage was found to be 0.01.

Take G7C G17U C18A A24G C31G: the self-cleavage was determined as 0.06.

As to G7U A11C A24U, the self-cleavage came to 0.06.

Take G7C C31U A39U C45G: the self-cleavage is 0.02.

G7U A26U U38A: the self-cleavage was 0.06.

Consider G7U C10G A16C C37U, for which the self-cleavage amounted to 0.03.

Consider G7U G33A C37U C45U, for which the self-cleavage amounted to 0.04.

On to G7U C15G C23U U43A, for which the self-cleavage was 0.45.

Consider G7C G21U C46U, for which the self-cleavage stood at 0.08.

Turning to G7U C13U G30C, the self-cleavage was 0.11.

Take G7U C18U G40C C45G: the self-cleavage amounted to 0.01.

In the case of C8A C10A C15G C31G, the self-cleavage amounted to 0.08.

Consider G7U U9G A14U G17A G35C, for which the self-cleavage worked out at 0.23.

As for G7U G27C A41C, the self-cleavage came to 0.06.

For G7U U20G U32C U38G, the self-cleavage was 0.

On to G7U G30A C45G, for which the self-cleavage came to 0.06.

As to G7C G27C C37G C46A, the self-cleavage is 0.02.

Take G7U A12C C18G U28A C31G C42G: the self-cleavage came out at 0.

Regarding C8A A12G C23A C37A, the self-cleavage was 0.12.

Consider C8A C10U C15A U43G C45U, for which the self-cleavage was determined as 0.03.

On to G7U G21C G30U G35C G44A, for which the self-cleavage was determined as 0.02.

Regarding C8A C10A C15A C37G, the self-cleavage worked out at 0.02.

For the variant G7U G22U C23A, the self-cleavage came out at 0.04.

As to G7U A12C A24C, the self-cleavage was 0.01.

On to C8A A11C G22C, for which the self-cleavage was 0.02.

With G7U G17U G27C, the self-cleavage was 0.03.

As for G7U C8A A16G G33U U43A, the self-cleavage worked out at 0.13.

On to G7C G17C G22C C23G G35U G40C, for which the self-cleavage worked out at 0.

Regarding G7U C8U C10G, the self-cleavage is 0.02.

For C8A C15U A16C G30A U34C A39U C42U, the self-cleavage was determined as 0.09.

As for G7U G19C C45U, the self-cleavage is 0.04.

Turning to G7C G35U G40A G44U, the self-cleavage is 0.14.

Regarding G7U G19A A24U C31G, the self-cleavage was found to be 0.01.

G7U C8A G44U: the self-cleavage amounted to 0.36.

Take G7U C8A U9A G17U U32G G44A: the self-cleavage stood at 0.26.

With G7U A24U G36A, the self-cleavage is 0.09.

Regarding G7U C10G U28G G29C A41C, the self-cleavage came out at 0.

As to G7C G29A C31G G35U U38A, the self-cleavage was 0.02.

For the variant G7U G19C C37A C46G, the self-cleavage was determined as 0.04.

In the case of G7U A11U G17C C18A U28G G29C, the self-cleavage stood at 0.

For the variant G7U U20G G44U, the self-cleavage was determined as 0.07.

For G7U C15A U20G, the self-cleavage worked out at 0.01.

Turning to G7U C8G A12U, the self-cleavage came to 0.04.

As to C8A A11C G35U, the self-cleavage came to 0.02.

As for C8A A25G U43C C45A, the self-cleavage is 0.12.

For G7U U28A A39G G44U, the self-cleavage came out at 0.15.

For G7U A11C G17U C18G U20A A26G G29U, the self-cleavage was found to be 0.01.

Turning to C8A A12C C15G C23A A25U, the self-cleavage came out at 0.02.

Consider G7U C10A G40C, for which the self-cleavage was 0.07.

With G7C U32A U38G, the self-cleavage came to 0.01.

As to C8A A12U A25G U28C, the self-cleavage stood at 0.18.

G7C C37G A41G: the self-cleavage turned out to be 0.02.

As for G7U A25G G29U, the self-cleavage is 0.04.

In the case of C8A C10G C15A C37U A41G, the self-cleavage worked out at 0.01.

Consider C8A A25U A39C A41C U43A, for which the self-cleavage came to 0.04.

G7C G19U A24C A25G: the self-cleavage worked out at 0.06.

C8A A12U A24C G30U: the self-cleavage was found to be 0.13.

G7C G21A G22A U32A C46U: the self-cleavage worked out at 0.08.

For G7U A12C A39G, the self-cleavage was 0.

Take G7C G19U G36A: the self-cleavage was determined as 0.06.

Regarding G7U C31U C45A, the self-cleavage worked out at 0.1.

On to G7U A11U G44C, for which the self-cleavage was determined as 0.02.

In the case of G7U A12G G30C, the self-cleavage was 0.

Regarding G7C U9C C13G G29A, the self-cleavage stood at 0.03.

Consider G7C C23U A24U, for which the self-cleavage worked out at 0.27.

Take C8A A12G A25U: the self-cleavage worked out at 0.01.

Regarding C8A A24G C42G, the self-cleavage was 0.2.

Consider G7U G19U A41C, for which the self-cleavage is 0.21.

As to G7U A12C C13U C45U, the self-cleavage amounted to 0.04.

Regarding C8A C15A C37G, the self-cleavage was found to be 0.33.

Consider G7U C10G A25U C31A A41C, for which the self-cleavage came out at 0.02.

Consider C8A A25U A41G, for which the self-cleavage is 0.15.

In the case of G7U A12U U20C C37G C42A, the self-cleavage was determined as 0.01.

In the case of G7U A16U U34G C45U, the self-cleavage amounted to 0.56.

In the case of G7U A26U U38C A39G, the self-cleavage was 0.6.

Regarding G7U A14C A25U, the self-cleavage turned out to be 0.17.

As to C8A C10A A24U, the self-cleavage was found to be 0.01.

For the variant C8A A16G C31A, the self-cleavage is 0.05.

As to G7U A12C U38C, the self-cleavage is 0.01.

For the variant G7C U34A G36A, the self-cleavage came to 0.11.

As to G7U G22U C23A A41C C42U C45U, the self-cleavage stood at 0.31.

With G7U G21U G22A C23A A24G G33U, the self-cleavage came out at 0.2.

In the case of C8A A12C A16U G30U, the self-cleavage amounted to 0.05.

As to C8A C15A G21A U43C, the self-cleavage is 0.56.

Consider G7U A16G G30U U32A G33U G40U, for which the self-cleavage was 0.04.

On to G7C G30C C31U G33C, for which the self-cleavage was found to be 0.11.

Regarding G7U G30C C31U, the self-cleavage was found to be 0.07.

As to G7U A26G G29C C46A, the self-cleavage was 0.04.

With C8A A14U G17A A39G, the self-cleavage was 0.36.

With C8A C15G G35C A41G, the self-cleavage worked out at 0.16.

With G7U C10G C23G, the self-cleavage came out at 0.01.

With G7U C10G A26C, the self-cleavage amounted to 0.01.

Regarding G7U A24C U38G, the self-cleavage was 0.01.

Regarding G7U C18U G44A, the self-cleavage was 0.43.

As to G7C G17A U38C, the self-cleavage was determined as 0.11.

With G7U G21A U28A, the self-cleavage was found to be 0.06.

As to C8A C10A U20G C31G, the self-cleavage worked out at 0.

For C8A A24C C46A, the self-cleavage turned out to be 0.34.

Turning to G7U C13A G19C, the self-cleavage came to 0.72.

As for G7U G22U A25G U34G, the self-cleavage was 0.08.

For the variant G7U C37A C42U, the self-cleavage was determined as 0.03.

G7U C15A C23U A25G G27U C42U G44A: the self-cleavage was determined as 0.18.

As for G7U C8U U28A, the self-cleavage amounted to 0.16.

For the variant G7U G17C G21C C31U, the self-cleavage was 0.02.

As to G7U C18G U28G, the self-cleavage was found to be 0.12.

As to G7U C10A U28C U32G U34C, the self-cleavage came out at 0.04.

Turning to G7U G21U C23U C42U, the self-cleavage turned out to be 0.11.

As for G7U U32G U43A C46U, the self-cleavage came out at 0.1.

Turning to G7U A14G C42U, the self-cleavage turned out to be 0.08.

For G7C G29U C37U, the self-cleavage came out at 0.08.

With C8A A26C G30U U32C G40U, the self-cleavage worked out at 0.11.

Consider C8A A14U A16G C18U, for which the self-cleavage was 0.09.

As for G7U A24G A26C, the self-cleavage came to 0.07.

For the variant G7U G19U G33A U38C, the self-cleavage came to 0.07.

As to C8A A14G A24U G29A C46U, the self-cleavage turned out to be 0.14.

As for G7U C10A C18A G40U, the self-cleavage amounted to 0.

Consider G7U C10U A25U, for which the self-cleavage stood at 0.05.

For C8A A12G A16G G22C C46U, the self-cleavage is 0.09.

With G7C G19C C23U U28A, the self-cleavage was 0.15.

With G7U C8A U38G U43C, the self-cleavage came to 0.09.

Turning to G7C G22C C23U U32G, the self-cleavage was 0.08.

With C8A C10U A11U C46U, the self-cleavage is 0.03.

For G7U G29A C31U G35U, the self-cleavage turned out to be 0.01.

Turning to C8A A26U U32A C45G, the self-cleavage came to 0.2.

Turning to G7C U9G A14C U38A C46A, the self-cleavage was 0.

For the variant G7U A16C U32A G35U, the self-cleavage turned out to be 0.03.

C8A A11G C18G G21U A25U: the self-cleavage was 0.02.

With G7U U9A A11U C23U G33U, the self-cleavage is 0.02.

As to G7C U9A G33C U38C C46A, the self-cleavage is 0.02.

Turning to G7U C10G G17U C18A A26G, the self-cleavage worked out at 0.03.

For the variant G7C G22U G30A, the self-cleavage amounted to 0.06.

On to G7U A11C C23G A24U, for which the self-cleavage was found to be 0.01.

Consider G7U C8A C18U, for which the self-cleavage is 0.25.

As to C8A A25U G27U G40C, the self-cleavage is 0.37.

G7U C8A G36C C37G: the self-cleavage stood at 0.07.

In the case of C8A A12C C31U, the self-cleavage worked out at 0.01.

Consider G7U G21A A41G G44A, for which the self-cleavage is 0.23.

On to C8A A12U A16C A26G U34A, for which the self-cleavage was determined as 0.01.

For G7U A24U C31G U34G G36U, the self-cleavage is 0.1.

Consider G7C G30U G35U G40A, for which the self-cleavage is 0.1.

For C8A C10G G29A C46U, the self-cleavage came out at 0.01.

For the variant G7U G22U C23U C42A, the self-cleavage is 0.06.

For the variant C8A C13U C15A G29C C37U, the self-cleavage was determined as 0.35.

On to G7C G19A C31A G40A, for which the self-cleavage was 0.02.

As to G7C U28G C45G, the self-cleavage amounted to 0.02.

For the variant C8A C13U A16G, the self-cleavage came out at 0.11.

In the case of G7C G21A C31G, the self-cleavage was determined as 0.03.

C8A C10G A12U: the self-cleavage worked out at 0.02.

With G7U A12G A14G C15A G17A G22C C23A U43A, the self-cleavage was found to be 0.1.

For C8A A11U U43G, the self-cleavage stood at 0.04.
